Measured values taken from the supplement of paper PMC10126150.
Values marked as one replicate rest on one cluster of the flow cell; about a third of the high ones do not repeat.

Tested on: ATP
Assay: switch fluorescence ratio, 500 uM ATP over buffer (Cy3 cluster intensity, sum of 5 cycles each) (fold (ratio)); higher = stronger signal-on switching upon ATP binding; sequences stand for … in TCGTCGGCAGCGTCAGATGTGTATAAGAGACAGTTTTTTTTTTTTTTTTTTTTTTTTT…TC
Conditions: aptamer strand: ATP DNA aptamer (quencher-CACCTGGGGGAGTATTGCGGAGGAAGG + anchor), 100 nM annealed; ATP concentration: 500 uM; one replicate
Method in brief: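 After annealing to 100 nM quencher-labelled ATP aptamer, Cy3-labelled switching-strand clusters on a modified Illumina MiSeq flow-cell were imaged in selection buffer. A second image followed after 15 min with 500 uM ATP at 22 °C, and five such buffer/ATP cycles were done, each separated by NaOH stripping and re-annealing. The fluorescence ratio, averaged per switch-domain sequence, is summed target-cycle over summed buffer-cycle Cy3 intensity per cluster, with clusters outside 100-1000 RFU excluded.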
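Also: ATP exposure 15 min at 22 °C before imaging.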

Row | Sequence | switch fluorescence ratio
1 | TCCACTTGAG | 0.971
2 | CAGGTGTGCC | 1.03
3 | CTCGGGTGTC | 1.03
4 | CATTCACAGG | 1.22
5 | TAATCTGGGT | 0.93
6 | TCTGTTATGC | 1.05
7 | TGAATGCATA | 1.06
8 | TGCGGGAGAG | 1.01
9 | ACTTTCATGT | 0.977
10 | TAGCAGCCTG | 1.01
11 | AATGTCGGTT | 0.989
12 | TCGTGCTGAT | 0.98
13 | CATATATAGG | 0.991
14 | TGAACCGCGC | 3.11
15 | GTTCCCTGCT | 1
16 | ATAGCATCGT | 1.01
17 | AGCTGGTCCT | 0.982
18 | CCACTGCTGG | 1.12
19 | AGACGAGATG | 1.02
20 | GGCTCTGGGA | 1.03
21 | GAGCGTTTGA | 0.98
22 | CAAATAGTAA | 0.998
23 | AATATTCTCG | 1

Row | Sequence | switch fluorescence ratio
24 | GATAAGTTTT | 0.992
25 | AATCTCTTAG | 0.956
26 | AACTGAATTT | 0.994
27 | TAATGATAGG | 0.988
28 | ATCGAATTCG | 0.991
29 | AGACATAGT | 1.03
30 | AGTCTACTGC | 1.1
31 | CTATTGGGGC | 1.03
32 | CCTAAATTT | 0.975
33 | TGCAGTCGTT | 0.972
34 | TCGGTAGAGC | 1.02
35 | GCTGATTGTA | 0.999
36 | GATGTTGACA | 1.12
37 | TTTCCGATTG | 1.06
38 | CTAGCCCCTA | 1.02
39 | ATAGAGGGG | 0.966
40 | TTTCTCGAAC | 0.985
41 | GTCGCTGTCG | 0.992
42 | ATAACCGGCT | 1.18
43 | AATTGGCCAG | 0.967
44 | ATGGAAGTGT | 1.01
45 | ATCTGATTGC | 0.976
46 | CATAAAGGGC | 0.988

Row | Sequence | switch fluorescence ratio
47 | CTTAATAGTC | 0.95
48 | TAGGGAAGAA | 1.01
49 | CACTTACGAT | 1.34
50 | TAACACGAGG | 1.07
51 | GAGTTAGGCT | 0.996
52 | GGGTCCCGAC | 1.04
53 | TCTTAACAAG | 0.957
54 | AAACGGCGCA | 0.963
55 | AGTGTAAGAG | 0.987
56 | CAGCCAAA | 1.62
57 | AGCTGTAGTG | 1.05
58 | TATTAACTAA | 1.02
59 | AGCTATTGAA | 1.02
60 | AATCGGATCA | 1.03
61 | ATACACTTGA | 1.08
62 | CAATATGGGT | 1
63 | ACATTTGGCT | 1.04
64 | TAGAGATGCT | 0.982
65 | TAACAATTCA | 1.04
66 | AATCACTGTT | 1.04
67 | TTGGGGGTA | 0.993
68 | AAAATAAGTG | 0.97
69 | ACTTGAGTGG | 0.975

Row | Sequence | switch fluorescence ratio
70 | CGTACTGGGT | 0.994
71 | ATAAACTCTC | 1.1
72 | CGTCCAAGTT | 0.999
73 | TTCAATTCT | 1.06
74 | AAAGGAGGTG | 1.1
75 | GAGATGAAAA | 1
76 | TTTGGTGAAT | 0.984
77 | AAGTAACGAC | 1.03
78 | GCGACGCCTT | 1.24
79 | CATGCTATCA | 0.986
80 | AGGTTTAGAA | 0.953
81 | ACTCATAAGA | 1.03
82 | ATCACTTGGC | 0.938
83 | CTTGAATCTG | 1.03
84 | TTATAACGC | 1.02
85 | TTTGTGCAA | 1.6
86 | TTTGAGATAA | 1.01
87 | GCCTCCCGTT | 1.1
88 | GCTATTTAAC | 1
89 | TGACCTGGTT | 0.96
90 | TGTTACCCCT | 0.999
91 | TTCAATCCGG | 1.09
92 | TTAGCTCGAG | 1.04

Row | Sequence | switch fluorescence ratio
93 | CGTTCAATTT | 1.01
94 | CTAGATGCGT | 1.04
95 | TATGGAAGTG | 0.96
96 | CTGGTCTGCA | 1.16
97 | ATTCGCTGGG | 1.38
98 | GGCTACGG | 1.03
99 | TGACGCGCAC | 3.08
100 | CACTGATTTT | 1.01
101 | TACGAGGCGC | 1.22
102 | ACAGTAGGT | 1.09
103 | AGTTTGTAGC | 0.979
104 | GAGTTAGTCT | 0.913
105 | ACATACGTTC | 1.33
106 | ATGACTAGCG | 1
107 | TCAATTCGGG | 1.01
108 | GTAACAGTGT | 1.01
109 | ATTAAACTAC | 1.12
110 | GTAGGTTTCT | 1.03
111 | TTTCCAACTG | 1.03
112 | AGGGTAGCGT | 1.02
113 | TAGCCTGAGA | 0.992
114 | GCAAGATATT | 1
115 | TCCCACAGAT | 1.06

Row | Sequence | switch fluorescence ratio
116 | TCTCAATAGC | 1.22
117 | GCTGCGCCTC | 1.39
118 | ATCCTGCAGG | 0.961
119 | GGCTAACTAC | 1.19
120 | TACTCTTTCG | 1.05
121 | CTAGGGCGTG | 0.972
122 | TTGAAAGTCT | 0.958
123 | ACCTATGAGA | 1.03
124 | TATGAAGGTT | 0.974
125 | ACGACGTATC | 1.16
126 | TCTGACGGAG | 1.06
127 | GGTCCGCGTC | 0.98
128 | TGCACCTGCC | 1.56
129 | CTTTTTGATC | 1.04
130 | ACATTCAGTC | 0.996
131 | ATAGTCACCA | 1.04
132 | TAAATGATT | 1
133 | CCAGTGTT | 1.02
134 | TACCGTTTGT | 1.04
135 | GCAAATTATA | 0.999
136 | TGAGAGAACT | 0.978
137 | GGTCTAGGTT | 0.985
138 | TGAACCGTTG | 1.03

Row | Sequence | switch fluorescence ratio
139 | GCCTGCGTAT | 1.08
140 | ACACGTGGGG | 1.06
141 | TCACGGATAG | 1.03
142 | CGGAAGACTT | 1.07
143 | ATTAAGGCCA | 0.999
144 | ACACCATGAA | 1.02
145 | AGAAGACAGC | 1.01
146 | GTAGTGGGG | 1
147 | ACGGTATATG | 1.15
148 | GTTGACGGGA | 1.01
149 | TACACCGGGA | 1.16
150 | CGTGTTAATA | 1
151 | CGCGGCGAGC | 1.01
152 | CACCGGCCCT | 1.09
153 | ACGAGTTTCT | 1.04
154 | ATTGATTCAC | 1.02
155 | TAGGCCGGAG | 1.03
156 | ATCGCGACGA | 0.964
157 | GGTTGATTTC | 0.936
